Source: PubChem BioAssay AID2147 (National Center for Advancing Translational Sciences (NCATS), 2009)
The whole screen tested about 230,000 compounds, of which about 3,600 (1.6%) were called active. The inconclusive results got no clear call from the source; some entries with a clear call stand among them for comparison. The call rests on the fitted dose curve; in most records, active means well fitted inhibition curve with a large enough effect (not every such curve was filed as active); inconclusive means small, poorly fitted or top-dose-only effect, or another doubt; inactive means no such curve, though single readings can be large or run the other way. A potency beside an inconclusive call is a rough fit, not a confirmed value.

The compounds below were run against Lysine-specific demethylase 4E (Homo sapiens) (UniProt B2RXH2) (assay: qHTS Assay for Inhibitors of Human Jumonji Domain Containing 2E (JMJD2E)). Conditions: JMJD2E catalytic domain, FDH-coupled NADH fluorescence (FDH is formaldehyde dehydrogenase); series mostly up to 57.1 µM.
Further: nearly all actives have a fitted effect of over 50% in size.
Potency means the concentration at half of the fitted maximal effect; tags describe the fitted curve by direction and shape.
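Wherever activity change, negative = inhibition is given: 0% = wells with enzyme and -100% = buffer wells without enzyme.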

Sequence of UniProt B2RXH2 (B2RXH2 whole entry, looked up, the tested form may be a part): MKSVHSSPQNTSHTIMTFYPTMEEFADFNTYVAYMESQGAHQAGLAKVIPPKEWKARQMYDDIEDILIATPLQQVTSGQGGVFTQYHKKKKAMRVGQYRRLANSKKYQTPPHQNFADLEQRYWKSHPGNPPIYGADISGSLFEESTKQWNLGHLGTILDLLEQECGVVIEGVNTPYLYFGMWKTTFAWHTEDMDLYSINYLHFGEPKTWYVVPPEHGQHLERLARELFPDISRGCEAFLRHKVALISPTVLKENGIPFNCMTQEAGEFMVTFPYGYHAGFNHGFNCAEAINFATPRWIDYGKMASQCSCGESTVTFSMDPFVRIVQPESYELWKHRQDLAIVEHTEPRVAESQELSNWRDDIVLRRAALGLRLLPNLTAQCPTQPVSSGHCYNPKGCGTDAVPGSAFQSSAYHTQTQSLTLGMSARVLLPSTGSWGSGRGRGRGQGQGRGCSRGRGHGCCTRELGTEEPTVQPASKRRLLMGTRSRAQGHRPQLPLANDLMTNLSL

Structure (SMILES) | Potency | activity change, negative = inhibition
NCCNS(=O)(=O)c1cccc2c(Cl)cccc12 | inconclusive: 39.8 µM [inhibitor, single point] | –
COc1ccc(C2=CC(c3ccco3)n3ncnc3N2)cc1 (centres undefined) | inconclusive: 31.6 µM [inhibitor, partial curve] | –
COc1ccc(C2/C(=C(/O)c3ccccc3)C(=O)C(=O)N2CO)cc1 (centres undefined) | inactive | –
CN(C)S(=O)(=O)c1cccc(NC(=O)COC(=O)CNC(=O)c2ccccc2F)c1 | inactive | –
CCOC(=O)NC1c2ccccc2Oc2ccccc21 | inactive | –
O=C(Cn1nc([N+](=O)[O-])nc1Br)NC(c1ccccc1)c1ccccc1 | inactive | –
COc1ccc(NC(=O)C2CC(=O)OC23CCCCC3)cc1 (centres undefined) | inactive | –
Cc1cc(-c2ccccc2)[nH]c(=O)c1S(=O)(=O)c1ccccc1 | inconclusive: 31.6 µM [inhibitor, partial curve] | –
O=C(Nc1ccc2ccccc2c1)c1cn(-c2ccccc2)nc1-c1cccs1 | inconclusive: 35.5 µM [inhibitor, single point] | –
Cc1[nH]c2c(C)cccc2c1CC(=O)O | inconclusive: 39.8 µM [inhibitor, single point] | –
Cc1cc(SCC(=O)c2cccs2)nc2ccccc12 | inactive | –
O=C(N/N=C/C(Br)=C\c1ccccc1)c1n[nH]c2c1CCC2 | inconclusive: 39.8 µM [inhibitor, single point] | –
CC(=O)Cc1nsc(NC(=O)c2ccc(-c3ccc(F)cc3)o2)n1 | inconclusive: 31.6 µM [inhibitor, partial curve] | –
COc1ccc(-c2nc(N)n(C(=O)c3ccccc3)n2)cc1 | inconclusive: 39.8 µM [inhibitor, single point] | –
Cc1ccc(N(CC(=O)N/N=C/c2cc(C)n(-c3ccccc3C)c2C)S(C)(=O)=O)cc1 | inconclusive: 35.5 µM [inhibitor, single point] | –
O=C1NCC(O)=C1C=Nc1ccccc1O | active: 17.8 µM | –
c1ccc2c(-c3csc(-c4ccncc4)n3)c[nH]c2c1 | inactive | –
CCOC(=O)c1sc(=NC(=O)c2ccc(C)cc2)n(C)c1C | inconclusive: 35.5 µM [inhibitor, partial curve] | –
CSc1ccccc1NC(=O)CN(C)S(=O)(=O)c1ccc(F)cc1 | inconclusive: 39.8 µM [inhibitor, single point] | –
CCOc1ccc2nc(NC(=O)CSc3nc(-c4ccccc4)c(C#N)c(=O)[nH]3)sc2c1 | inactive | –
COc1ccc2c(C)cc(N3CCOCC3)nc2c1 | inconclusive: 28.2 µM [inhibitor, partial curve] | –
O=C(c1ccccc1Oc1ccc(C(F)(F)F)cc1[N+](=O)[O-])N1CCOCC1 | inactive | –
CN(Cc1ccccc1)C(=O)CCCn1c(=O)[nH]c2cc(Cl)ccc2c1=O | inconclusive: 35.5 µM [inhibitor, single point] | –
COc1ccc2c(c1[N+](=O)[O-])CCC/C2=N/OC(=O)c1ccccc1SC | inactive | –
Nc1ccc2nc(SCc3ccc([N+](=O)[O-])cc3)sc2c1 | inactive | –

Structure (SMILES) | Potency | activity change, negative = inhibition
Fc1ccccc1CSc1nc2ncccc2[nH]1 | inactive | –
CN1C=CC=C/C1=C1\SC(=S)N(C2CCCCC2)C1=O | inactive | –
CSc1ncc(CN2CCc3c([nH]c4ccccc34)C2c2cccc(O)c2)cn1 (centres undefined) | inconclusive: 3.16 µM [inhibitor, partial curve] | –
Cc1ccc(CN2C(=O)CCC2C(=O)NCc2ccco2)cc1 (centres undefined) | inconclusive: 7.08 µM [inhibitor, single point] | –
c1csc(-c2nc3ccccc3[nH]2)c1 | inconclusive: 14.1 µM [inhibitor, partial curve] | –
CC(C)(C)c1ccc(S(=O)(=O)O/N=C2/CCCCC2c2ccc([N+](=O)[O-])cc2[N+](=O)[O-])cc1 (centres undefined) | inactive | –
Cc1cc2cc(CCNC(=O)c3ccc(Br)o3)c(=O)[nH]c2cc1C | inconclusive: 28.2 µM [inhibitor, partial curve] | –
CCN1C(=O)c2cccc3cccc1c23 | inactive | –
Oc1cccc(C=NCc2ccccc2)c1 | inactive | –
CSC1=N/C(=C/c2cccnc2)C(=O)N1Cc1ccccc1 | inconclusive: 22.4 µM [inhibitor, partial curve] | –
COc1cc2c(C#N)c(N3CCc4ccccc4C3)nc(N)c2c(N)n1 | inconclusive: 31.6 µM [inhibitor, partial curve] | –
CC(C)N(CCNCC(O)COc1ccc(C(C)(C)c2ccccc2)cc1)C(C)C (centres undefined) | inconclusive: 39.8 µM [inhibitor, single point] | –
CCOC(=O)COc1ccc2c(C)cc(=O)oc2c1C(=O)c1ccccc1 | inconclusive: 39.8 µM [inhibitor, single point] | –
COc1ccccc1NC(=O)Cn1c(=O)n(CCc2c[nH]c3ccccc23)c(=O)c2cccnc21 | inconclusive: 3.16 µM [inhibitor, single point] | –
COC(=O)COc1ccc(C)cc1-n1nc2ccccc2n1 | inconclusive: 28.2 µM [inhibitor, partial curve] | –
Nc1cc(N)nc(SCC(=O)N2CCCCC2)n1 | inactive | –
O=C(NCC1CCCO1)/C(=C/c1cn(-c2ccccc2)nc1-c1cccnc1)NC(=O)c1ccccc1 (centres undefined) | inactive | –
COC(=O)C[C@H]1c2ccccc2[C@H]2C(=C[C@@H](C)[C@H]3C(=O)N(O)C(=O)[C@H]32)N1C(=O)OC | – | inactive: -4.81% [at 11.4 µM]
Cc1cc(=O)n2[nH]c(-c3ccsc3-n3c(C)ccc3C)cc2n1 | inconclusive: 28.2 µM [inhibitor, partial curve] | –
O=c1c2c3nc4ccccc4nc3n(/N=C/c3ccco3)c2ncn1CCC1=CCCCC1 | inconclusive: 39.8 µM [inhibitor, single point] | –
O=C(c1ccc(N2CCCCC2)c([N+](=O)[O-])c1)N1CCOCC1 | inactive | –
COc1ccc(C2CC(C(F)(F)F)n3ncc(C(=O)NCc4cccnc4)c3N2)cc1OC (centres undefined) | inactive | –
N#CC1=C(N)OC2=C(CC/C2=C\c2ccc(F)cc2)C1c1ccc(F)cc1 (centres undefined) | inconclusive: 28.2 µM [inhibitor, single point] | –
O=c1c2cc(N3CCOCC3)ccc2[nH]c(=S)n1CCCN1CCCCC1 | inconclusive: 39.8 µM [inhibitor, single point] | –
O=C(/C=C/c1ccc(Cl)c([N+](=O)[O-])c1)Nc1cccc(NC(=O)c2ccco2)c1 | inactive | –

Structure (SMILES) | Potency | activity change, negative = inhibition
COc1ccc(-c2nnc(-c3cc4c(ccc5ccccc54)oc3=O)o2)cc1 | inconclusive: 7.94 µM [inhibitor, partial curve] | –
Cc1cccnc1NC(=S)NC(=O)/C=C/c1ccco1 | inconclusive: 31.6 µM [inhibitor, single point] | –
C/C(=N\NC(=O)c1cc([N+](=O)[O-])cc([N+](=O)[O-])c1)c1ccco1 | inactive | –
CC(=O)N1CCC(=NNc2ccnc3cc(Cl)ccc23)CC1 | inconclusive: 39.8 µM [inhibitor, single point] | –
O=C(O)COc1ccccc1/C=C1\SC(=S)N(/N=C/c2ccccc2O)C1=O | inactive | –
CCCc1[nH]nc2c1C(c1ccc(O)cc1OCC)C(C#N)=C(N)O2 (centres undefined) | inactive | –
CCOC(=O)/C(C#N)=C/Nc1ccsc1C(C)=O | inconclusive: 39.8 µM [inhibitor, single point] | –
Nc1ccc2c3c(cccc13)C(=O)N(c1ccccc1)C2=O | inconclusive: 14.1 µM [inhibitor, partial curve] | –
COC(=O)C1=C(C)NC(C)=C(C(=O)OCCN(C)Cc2ccccc2)C1c1cccc([N+](=O)[O-])c1 (centres undefined) | inconclusive: 10 µM [inhibitor, partial curve] | –
CN1/C(=C\C(=O)COC(=O)CN2C(=O)C3CC=CCC3C2=O)C(C)(C)c2ccccc21 (centres undefined) | inconclusive: 25.1 µM [inhibitor, partial curve] | –
N#CCC(=O)N/N=C/c1cn(Cc2ccc3ccccc3c2)c2ccccc12 | inconclusive: 35.5 µM [inhibitor, single point] | –
COc1ccc(N2CCN(C(=O)c3ccc(Cl)c(S(=O)(=O)N4CCCC4)c3)CC2)cc1 | inactive | –
CCN(CC)CCN1C(=O)c2oc3ccc(F)cc3c(=O)c2C1c1ccncc1 (centres undefined) | inconclusive: 28.2 µM [inhibitor, partial curve] | –
O=C(Nc1cccc2nsnc12)c1ccc(-c2cccc(Cl)c2)o1 | inconclusive: 10 µM [inhibitor, partial curve] | –
Cc1ccc(C(=O)N/N=C\c2ccc(Br)o2)o1 | inactive | –
CN(C(=O)N1CCN(c2ccccn2)CC1)c1ccccc1 | inconclusive: 25.1 µM [inhibitor, single point] | –
Cc1sc(NC(=O)c2ccco2)c(C(c2cccnc2)N2CCC(C)CC2)c1C (centres undefined) | inconclusive: 39.8 µM [inhibitor, single point] | –
CCC1CC2(C)NC(=O)c3c(sc4c3CC(C)(C)OC4)N2C1=O (centres undefined) | inconclusive: 31.6 µM [inhibitor, partial curve] | –
CCCCCNC(=O)C(C#N)c1nc2ccccc2nc1N1CCCC1 (centres undefined) | inconclusive: 28.2 µM [inhibitor, partial curve] | –
CC1CC(C)(C)NC(=S)N1CCC(=O)NCCc1ccc(Cl)cc1 (centres undefined) | inactive | –
CN1CC[n+]2c(CN3C(=O)c4ccccc4C3=O)csc21 | inactive | –
Cn1c(/C(C#N)=C(\O)c2ccc([N+](=O)[O-])cc2)nc2ccccc21 | inactive | –
O=C(c1ccccc1)c1c(O)nc(-c2ccccc2)n(-c2ccccc2)c1=O | inactive | –
Nc1ncnc2oc(-c3ccco3)c(-c3ccco3)c12 | inconclusive: 28.2 µM [inhibitor, partial curve] | –
